Over roughly 110,000 compounds, “z-score” has its median near -0.1; the highest 2% begin near 2. The list shows a part of the results. The source made the active and inactive calls.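 Rule for the calls: active = z-score in the third read window above 3 or below -3; inactive = the rest.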

In this test the target is Metabotropic glutamate receptor 8 (Rattus norvegicus) (UniProt P70579). The test can be described thus: mGluR8 Gi/Go-coupled signaling modulation – cell-based, rat, thallium flux, HTS, primary screen (AID 488969). The settings on record: HEK293 rat mGluR8, GIRK (G protein-gated inwardly rectifying potassium channel) thallium flux, FluoZin2; at 10 µM; stronger effect = higher value; submaximal glutamate (EC20) added with thallium.
Sequence of UniProt P70579 (P70579 whole entry, looked up): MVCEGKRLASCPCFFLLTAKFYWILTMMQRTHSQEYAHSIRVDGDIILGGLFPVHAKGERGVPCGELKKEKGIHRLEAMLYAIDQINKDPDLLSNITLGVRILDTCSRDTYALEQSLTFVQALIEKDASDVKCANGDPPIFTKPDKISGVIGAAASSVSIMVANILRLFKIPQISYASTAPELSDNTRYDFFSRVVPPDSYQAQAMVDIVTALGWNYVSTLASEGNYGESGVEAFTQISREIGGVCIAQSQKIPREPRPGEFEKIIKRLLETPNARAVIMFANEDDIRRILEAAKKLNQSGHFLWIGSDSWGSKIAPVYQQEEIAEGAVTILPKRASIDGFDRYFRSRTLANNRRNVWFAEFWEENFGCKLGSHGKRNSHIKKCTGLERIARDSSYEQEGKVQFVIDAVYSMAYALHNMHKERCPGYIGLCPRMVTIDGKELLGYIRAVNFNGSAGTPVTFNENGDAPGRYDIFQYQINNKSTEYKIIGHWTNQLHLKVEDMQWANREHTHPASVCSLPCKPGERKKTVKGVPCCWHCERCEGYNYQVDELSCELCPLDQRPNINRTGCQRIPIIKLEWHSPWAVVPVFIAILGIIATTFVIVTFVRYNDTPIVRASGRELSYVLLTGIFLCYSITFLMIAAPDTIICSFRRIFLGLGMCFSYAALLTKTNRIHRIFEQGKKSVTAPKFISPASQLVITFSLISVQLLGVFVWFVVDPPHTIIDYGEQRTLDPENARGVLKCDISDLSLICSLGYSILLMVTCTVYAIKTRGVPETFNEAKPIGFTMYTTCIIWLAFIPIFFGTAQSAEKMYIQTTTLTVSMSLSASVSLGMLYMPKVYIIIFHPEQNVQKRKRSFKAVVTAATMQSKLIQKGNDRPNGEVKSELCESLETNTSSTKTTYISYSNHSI
`COc1cc(/C=N/NC(=O)Cc2cccs2)c([N+](=O)[O-])cc1OC` registered a z-score of -0.078. Then `COc1ccc(CNC(=O)c2cnc(C)cn2)cc1`, with -0.00169. Then `CCOC(=O)c1c(NC(=O)CSc2nnc(-c3ccncc3)n2Cc2ccco2)sc(C)c1C`, with -2.47; and `O=C(NC(=S)N1CCN(c2ccc(Cl)cc2[N+](=O)[O-])CC1)c1cccs1`, with active: 9.46; and `Cc1ccccc1Nc1nc(-c2ccccc2)c(C(=O)Nc2cccnc2)s1`, with 0.177.

Consider `COc1ccc(CNC(=O)c2csc(Cc3ccc(Cl)cc3)n2)cc1`, for which the z-score was -0.195. Then `O=C(Nc1ccc(N2CCCCC2)cc1)c1cccnc1Cl`, with -0.137; and `Cc1ccc(-c2nnc(-c3cccc(NC(=O)c4cccs4)c3)o2)cc1`, with -0.196. To `Cc1cc2ccccc2n1CCNC(=O)c1ccccc1` belongs 0.104; to `CCCC(=O)Nc1nc2nc(-c3ccccc3)cc(-c3ccccc3)n2n1`, -1.64. To `CC(c1ccco1)N(C(=O)C12CC3CC(CC(C)(C3)C1)C2)c1ccccn1` (configuration not stated) belongs 0.0449. Take `O=C1c2ccccc2C(=O)N1CCC1=CCCCC1`: the z-score was found to be 0.634. Then `Cc1ccc2cc(C#N)c(N3CCCC3)nc2c1C`, with -0.233; and `Cc1noc(C)c1C(=O)N1CCN(C(=O)c2sc3cc(Cl)ccc3c2Cl)CC1`, with -0.676; and `C=CCN(CC=C)S(=O)(=O)c1ccc2nc(NC(=O)C(C)C)sc2c1`, with -0.419. To `CCc1ccc(-c2cc(C(=O)NCc3ccco3)c3ccccc3n2)s1` belongs -0.222; to `N#CCCS(=O)(=O)c1ccc(N)cc1`, 0.046. Then `C=CCNC(=S)NNC(=O)c1ccc(OC(C)C)cc1`, with -0.659; and `CCn1c(CNc2ccc(Cl)cc2)nnc1SCc1ccc(C)cc1`, with 0.0857; and `CCCNC(=O)NC(=O)CSc1nc2cc(C(=O)OC)ccc2c(=O)n1-c1ccccc1`, with -0.0375.

For the compound `COc1ccc(C(c2c(O)cc(C)oc2=O)c2c(O)cc(C)oc2=O)cc1`, the z-score is -0.45.

`COc1ccc(C(C)NC(=O)c2ccc([N+](=O)[O-])cc2)cc1OC` (configuration not stated) showed a z-score of -0.249. Then `Cc1cc(N2CCN(c3ccccn3)CC2)n2nc(C)nc2n1`, with 0.267. To `CS(=O)(=O)Nc1ccccc1C(=O)NCc1ccco1` belongs -0.0873. Then `COC(=O)c1c(NC(C)=O)sc(Cc2ccccc2)c1C`, with -0.395; and `Cc1ccc(S(=O)(=O)NC(C)(C)CSc2nncn2C)cc1`, with -0.274; and `COc1ccccc1N1CCN(Cc2cccs2)CC1`, with -0.108. Take `N#C/C(=C\c1ccc(Br)s1)C(=O)N1CCN(c2ccccc2)CC1`: the z-score was -0.178. Then `Cc1ccccc1Cn1c(Cc2ccccc2)nc2ccccc21`, with 0.18. To `Cc1nnc(N(C(=O)c2cnccn2)c2ccccc2)s1` belongs -0.0539; to `CN(C)C=C1C(=O)c2ccccc2C1=O`, -0.178; to `O=C(COC(=O)CNC(=O)c1ccccc1Cl)Nc1ncc(C(F)(F)F)cc1Cl`, -0.573. The compound `CCc1ccccc1NC(=O)N[C@H](C(=O)O)C(C)C` yielded a z-score of 0.0781. Then `COc1ccc(-n2c(C)cc(/C=C3\SC(=S)N(Cc4ccco4)C3=O)c2C)cc1`, with -0.306; and `COc1ccccc1NS(=O)(=O)c1ccc(C)c(C(N)=O)c1`, with -0.0928. Then `COc1ccc(C2C(C(=O)N3CCN(c4ccccc4)CC3)c3ccccc3C(=O)N2C)cc1` (configuration not stated), with -0.145; and `COc1ccc(CCC(N)=O)cc1OC`, with 0.00699; and `Cc1cc(Cl)ccc1N=C1N=C(N)c2ccccc21`, with -1.75.

Take `O=C(CSc1c(Cl)cccc1Cl)N1CCC(c2nc3ccccc3s2)CC1`: the z-score was -0.0471. Turning to `CCSc1cnn(-c2ccccc2)c(=O)c1SCC`, the z-score was -0.503. To `O=C(CSc1ncn[nH]1)Nc1nc(-c2ccccc2)ns1` belongs -0.512; to `COc1cc(C(=O)N2CC(C)OC(C)C2)c([N+](=O)[O-])cc1OC` (configuration not stated), 0.377. In turn, `CSc1ccccc1C(=O)NC1CC2CCC1C2` (configuration not stated) registered a z-score of 0.00508.

As for `CCOc1ccc(CC(=O)Nc2c(C(N)=O)oc3ccccc23)cc1OCC`, the z-score was 0.355. `CCOC(=O)CC(=O)CSCC(=O)Nc1ccc(C)cc1`: the z-score was 0.131. Then `COc1ccc(C2CC(=O)N3CN(c4ccccc4F)CSC3=C2C#N)cc1OC` (configuration not stated), with -0.0688. To `CCOC(=O)c1c(NC(=S)NC(=O)c2cnn(CC)c2)sc2c1CCC(C)C2` (configuration not stated) belongs 0.488; to `COC(=O)Nc1c(C)nn(Cc2ccccc2C)c1C`, 1.05; to `Cc1ccc(-c2cc(-c3cccc(F)c3)n[nH]2)c(O)c1`, -0.16. To `CCOC(=O)N1CCC(NC(=O)C2CCCN(C(=O)c3cc4sccc4n3C)C2)CC1` (configuration not stated) belongs -0.19; to `CC(Oc1ccc(Cl)cc1Cl)C(=O)NCCCCc1ccccc1` (configuration not stated), -0.648. `O=C(NCCN1CCOCC1)c1cccc(S(=O)(=O)N2CCCCCC2)c1` yielded a z-score of -0.077. Then `CC1CCCC(C)N1C(=O)CN1C(=O)C(C)(C)Oc2ccc(C(=O)NC3CCCC3)cc21` (configuration not stated), with -0.774. Then `CCS(=O)(=O)n1nc(-c2ccco2)nc1SC`, with -0.348; and `C=CCc1cccc2cc(C(=O)Nc3ccc(F)cc3)c(=O)oc12`, with -0.8; and `CC(C)[C@H](N)c1nnc(SCc2ccc(Cl)cc2)o1`, with 0.207.

In turn, `O=C(Nc1nc(-c2ccccc2)cs1)C1CCCCN1S(=O)(=O)c1ccccc1` (configuration not stated) returned a z-score of 1.16. As for `CN(C)S(=O)(=O)c1ccc(N2CCOCC2)c(C(=O)O)c1`, the z-score was 0.216.

For `Cn1nc(C(F)(F)F)c(C(=O)Nc2ccc(F)cc2F)c1Oc1cccc(Cl)c1`, the z-score was -0.375. As for `Cc1cc(C)nc(NS(=O)(=O)c2ccc(NC(=O)c3ccc(S(=O)(=O)N4CC(C)OC(C)C4)cc3)cc2)n1` (configuration not stated), the z-score is -0.605.

In the case of `CCOC(=O)/C(C#N)=C\c1c(OCC)n(CC)c2ccccc12`, the z-score was -0.745. To `O=C(NCC1CCCO1)C1CCCN(Cc2cnn(-c3ccccc3)c2-n2cccc2)C1` (configuration not stated) belongs -0.0478; to `CCOC(=O)CNC(=O)c1c(C)nn(-c2ccccc2)c1Cl`, -0.3. Then `Cc1ccc2oc(=O)c3cnn(CC(=O)NC4CCC(C)CC4)c3c2c1` (configuration not stated), with -2.45; and `O=C(Nc1ccc(Oc2ccccc2)cc1)c1ccco1`, with 0.941; and `CCCCOc1ccc(C(=O)N2CCCC2)cc1`, with -0.35. With `C=CCc1ccc(OCCOCCNCCCC)c(OC)c1`, the z-score is 1.2. Then `Cc1ccc(C(=O)N/C(=C\c2cccs2)C(=O)NCCCn2ccnc2)cc1`, with -0.313.

For `O=C1CSC(c2ccccc2)N1c1nnc(C23CC4CC(CC(C4)C2)C3)s1` (configuration not stated), the z-score was -0.254. Take `Cc1ccc(NC(=O)CSc2nnc(CCCCCNC(=O)OC(C)(C)C)o2)c(C)c1`: the z-score was determined as 0.493. Regarding `CC(C)C(NC(=O)C(c1ccccc1)c1ccccc1)c1nc2ccccc2[nH]1` (configuration not stated), the z-score came to 0.0682. Then `COCCn1c(C)cc(C(=O)CSc2nnc3ccccn23)c1C`, with 0.206.

Source of the values: PubChem BioAssay AID488969 (Vanderbilt High Throughput Screening Facility, 2010).
